# Hit rate of the full screen: of about 410,000 compounds, about 5,000 (1.2%) were called active. The shares of active, inactive and inconclusive entries below differ from those in the screen. Calls come from the whole dose curve; as a rule, active = well fitted inhibition curve with a large enough effect; inconclusive = small, poorly fitted or top-dose-only effect; inactive = no such curve, though single readings can be large or run the other way. Potencies beside an inconclusive call are fits to weak or partial responses and may not hold up.
# Assay: qHTS for Inhibitors of TGF-b; note: nearly all actives have a fitted effect of over 65% in size
# Settings: HepG2 CAGA-GFP TGF-b/SMAD3 reporter, GFP fluorescence, 18 h, TGF-beta stimulated, 500 pg/mL final; series mostly up to 46.1 µM; activity, negative = inhibition: at the top concentration
# Summary of the method: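 TGF-beta reporter screen: HEPG2 CAGA-GFP, 1% FBS, 500 pg/mL TGF-beta final, 18 h; per-cell GFP summed per well; curves fitted and categorized by class.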
# % is set by controls: 0 for no effect and ±100 for the full control effect; potency is the fitted concentration of half-maximal effect; tags give direction and shape of the fitted curve.
Structure (SMILES),Potency,"activity, negative = inhibition"
COc1ccc(NC(=O)Cn2c(=O)n(Cc3nc(-c4ccccc4)no3)c(=O)c3ccccc32)cc1Cl,"inconclusive: 2 µM [inhibitor, full curve]",
Cc1cccc(COCCN2CCN(S(=O)(=O)c3ccccc3)CCC2=O)c1,"inconclusive: 17.8 µM [inhibitor, single point]",
CCOC(=O)C1=C(c2ccccc2)NC(N)=NC1c1ccc(OCc2ccc(Cl)cc2)c(OC)c1 (configuration not stated),"inconclusive: 35.5 µM [inhibitor, single point]",
Cc1ccccc1OCc1nc2ccc(S(=O)(=O)N3CCOCC3)cc2[nH]1,"inconclusive: 25.1 µM [inhibitor, single point]",
COc1ccc(CCN2CCCC(CN(C)Cc3cccc(OC)c3)C2)cc1 (configuration not stated),,inactive: 1.57%
CN(C)CCCNc1nc2cc(-c3ccn[nH]3)sc2c(=O)n1C,"inconclusive: 28.2 µM [inhibitor, single point]",
S=C(NCCc1ccccc1)N/N=C/c1cccs1,"inconclusive: 17.8 µM [inhibitor, single point]",
O=C(NCCn1ccc2ccccc21)c1ccc(Cl)cc1,"inconclusive: 25.1 µM [inhibitor, partial curve, poor fit]",
CN(C)c1ccc(N=Nc2ccc(S(=O)(=O)O)cc2)c2ccccc12,"inconclusive: 14.1 µM [inhibitor, partial curve, poor fit]",
Cc1cccc(N2CCN(CCNC(=O)Nc3ccc(Cl)cc3)CC2)c1C,"inconclusive: 6.31 µM [inhibitor, single point]",
CCOc1ccccc1-n1nnc(-c2nsc(NC(=O)c3ccc(C)cc3)n2)c1C,"inconclusive: 1.78 µM [inhibitor, full curve, poor fit]",
CC1=C(C(=O)N(C(C)C)C(C)C)CC(CC(=O)NC2CCCC2)C(=O)N1Cc1ccc(C(C)(C)C)cc1 (configuration not stated),"inconclusive: 12.6 µM [inhibitor, partial curve, poor fit]",
COc1ccc2nc3n(c(=O)c2c1)-c1cc2ccccc2cc1C(=O)NC3Cc1ccc(O)cc1 (configuration not stated),"inconclusive: 20 µM [inhibitor, partial curve, poor fit]",
COc1ccc(NC(=O)CN(c2cc(C)cc(C)c2)S(=O)(=O)c2c(C)noc2C)cc1OC,,inactive: -0.484%
COc1cccc(NC(=O)CN(C)C(=O)CNC(=O)c2sc3ccccc3c2Cl)c1,"inconclusive: 15.8 µM [inhibitor, single point]",
CC(C)Cc1ccc(C(C)C(=O)OCC(=O)c2c[nH]c3ccccc23)cc1 (configuration not stated),"inconclusive: 35.5 µM [inhibitor, single point]",
CCOc1cc(/C=N/Nc2nc3ccccc3[nH]2)cc(Br)c1OCC(=O)N(C)C,active: 8.91 µM,
CCc1nc(SCC(=O)N2CCc3ccccc32)c2oc3ccccc3c2n1,,inactive: 8.74%
CCc1cccc(-n2c(=O)c3cccnc3n2CC(=O)Nc2ccc(F)c(C)c2)c1,"inconclusive: 12.6 µM [inhibitor, single point]",
CC(=O)Nc1ccc(Oc2nc(-c3ccccn3)nc3ccccc23)cc1,"inconclusive: 10 µM [inhibitor, partial curve, poor fit]",
COc1ccccc1NC(=O)CN1CCN(CC(=O)Nc2cc(C)ccc2OC)CC1,,inactive: 7.89%

Structure (SMILES),Potency,"activity, negative = inhibition"
CCOC(=O)Cc1nnc2c(Nc3ccc(Cl)cc3)nc3nonc3n12,"inconclusive: 25.1 µM [inhibitor, single point]",
CC1=C(C(=O)OCCNC(=O)c2ccccc2O)C(c2ccccc2[N+](=O)[O-])C(C(=O)OCC2CCCO2)=C(C)N1 (configuration not stated),"inconclusive: 35.5 µM [inhibitor, single point]",
Cc1ccc(C2=NOC3(CC(=O)N(c4ccc(C)cc4)C3=O)C2)cc1 (configuration not stated),"inconclusive: 5.62 µM [inhibitor, single point]",
CC1=CN2C(=N)/C(=C\c3cn(CCCOc4ccccc4)c4ccccc34)C(=O)N=C2S1,,inactive: -8.84%
CCOC(=O)c1c(-c2ccccc2)csc1NC(=S)NC,"inconclusive: 15.8 µM [inhibitor, single point]",
Brc1cccc(Cn2c(-c3cncs3)nc3ccccc32)c1,"inconclusive: 35.5 µM [inhibitor, single point]",
Cc1ccc2nc(-c3cccc(-c4nc5ccc(C)cc5o4)n3)oc2c1,,inactive: 28.6%
CCOc1cc(/C=C2/NC(=O)NC2=O)cc([N+](=O)[O-])c1O,"inconclusive: 35.5 µM [inhibitor, single point]",
O=C(/C=C/c1ccc(OC(F)F)cc1)Nc1cccc(S(=O)(=O)N2CCOCC2)c1,"inconclusive: 12.6 µM [inhibitor, single point]",
CC(OC(=O)c1ccccc1Nc1ccc(SC(F)F)cc1)C(N)=O (configuration not stated),"inconclusive: 3.98 µM [inhibitor, full curve, poor fit]",
CCCCNS(=O)(=O)c1ccc(NC(=O)c2c(-c3ccccc3Cl)noc2C)cc1,"inconclusive: 12.6 µM [inhibitor, partial curve, poor fit]",
C/C(=N\NC(=O)c1ccccc1OCc1ccc(F)cc1)c1ccccn1,active: 11.2 µM,
COc1cccc(C(C)NC(=O)C2CCCC2)c1 (configuration not stated),,inactive: -0.227%
CCOC(=O)c1c(-c2cccs2)csc1NC(=O)CN1CC(C)OC(C)C1 (configuration not stated),"inconclusive: 22.4 µM [inhibitor, partial curve, poor fit]",
COCCCNC(=O)c1cc(Sc2nnc(C)s2)nc2ccccc12,,inactive: -6.52%
COc1ccc2cnn(-c3ccccc3C)c(=O)c2c1OC,,inactive: -1.76%
CCc1cccc(N2C(=O)CSC23C(=O)Nc2ccccc23)c1 (configuration not stated),,inactive: -8.76%
CCN(CC)C(=O)c1ccc(Nc2nnc(-c3ccc(C)c(S(=O)(=O)NC)c3)c3ccccc23)cc1,active: 11.2 µM,
CC(=O)N1Cc2ccccc2CC1C(=O)O (configuration not stated),"inconclusive: 0.501 µM [inhibitor, full curve, poor fit]",
O=C(CSc1n[nH]c(-c2ccncc2)n1)Nc1ccccc1,"inconclusive: 35.5 µM [inhibitor, single point]",
O=S(=O)(NCC1CN(S(=O)(=O)c2c(F)cccc2F)C1)c1ccc2c(c1)OCCO2,,inactive: -17.6%

# Source: PubChem BioAssay AID588855 (National Center for Advancing Translational Sciences (NCATS), 2011)
